Reference: paper PMC4336329 (PLoS ONE, 2015)
Hit rate of the full screen: of about 310,000 compounds, about 14,000 (4.5%) showed an effect of 50% or more. The effect is printed as a negative number. This is one part of the list.

biological target: human ether-à-go-go-related gene (hERG) potassium channel (human, UniProt Q12809); assay: primary screen, population patch clamp on CHO cells stably expressing hERG
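Note: peak tail current of the secondary pulse compared with the same well before compound.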

human ether-à-go-go-related gene (hERG) potassium channel, sequence (Q12809 whole entry, looked up): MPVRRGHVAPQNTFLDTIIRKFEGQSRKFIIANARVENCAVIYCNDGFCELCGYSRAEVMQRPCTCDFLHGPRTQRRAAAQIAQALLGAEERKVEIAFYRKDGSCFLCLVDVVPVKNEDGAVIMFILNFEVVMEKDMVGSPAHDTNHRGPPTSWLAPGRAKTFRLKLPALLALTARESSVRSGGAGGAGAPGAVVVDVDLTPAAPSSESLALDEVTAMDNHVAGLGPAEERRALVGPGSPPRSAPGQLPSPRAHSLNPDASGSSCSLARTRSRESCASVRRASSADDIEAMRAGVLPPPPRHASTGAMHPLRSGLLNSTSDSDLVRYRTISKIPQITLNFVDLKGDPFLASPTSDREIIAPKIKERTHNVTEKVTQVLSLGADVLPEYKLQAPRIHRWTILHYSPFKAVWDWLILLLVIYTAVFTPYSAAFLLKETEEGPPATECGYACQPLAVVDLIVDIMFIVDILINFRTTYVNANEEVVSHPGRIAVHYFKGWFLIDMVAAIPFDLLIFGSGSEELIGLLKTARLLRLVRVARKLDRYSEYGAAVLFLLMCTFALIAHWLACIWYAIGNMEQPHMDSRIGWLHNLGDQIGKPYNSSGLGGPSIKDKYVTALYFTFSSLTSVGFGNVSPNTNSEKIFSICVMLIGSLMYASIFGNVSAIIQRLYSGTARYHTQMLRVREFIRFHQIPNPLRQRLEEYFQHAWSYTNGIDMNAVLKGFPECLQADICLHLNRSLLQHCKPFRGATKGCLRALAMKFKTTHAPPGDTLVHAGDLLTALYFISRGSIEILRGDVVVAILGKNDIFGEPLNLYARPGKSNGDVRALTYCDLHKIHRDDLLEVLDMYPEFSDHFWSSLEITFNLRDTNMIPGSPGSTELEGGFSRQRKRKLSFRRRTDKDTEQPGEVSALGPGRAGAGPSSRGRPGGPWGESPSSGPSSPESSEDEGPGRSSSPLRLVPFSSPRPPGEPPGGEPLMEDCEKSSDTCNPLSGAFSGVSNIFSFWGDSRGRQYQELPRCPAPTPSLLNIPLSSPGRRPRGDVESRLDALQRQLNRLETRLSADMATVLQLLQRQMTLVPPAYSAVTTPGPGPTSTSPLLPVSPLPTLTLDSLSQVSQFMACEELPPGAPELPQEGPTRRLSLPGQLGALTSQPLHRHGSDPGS

Row | SMILES | hERG current change (%, negative = inhibition) at 10uM [%]
1 | O=C(Cn1ncc(Cl)c(Cl)c1=O)NCC1CCCCC1 | -16.6
2 | O=C(/C=C\c1ccco1)Nc1ccc(N2CCN(C(=O)c3ccccc3)CC2)cc1 | -55.7
3 | COC(=O)Nc1ccc(S(=O)(=O)N2CCC(C(=O)N(C)C3CCCCC3)CC2)cc1 | 9.22
4 | CSCCNC(=O)c1ccc(OC2CCN(S(=O)(=O)N(C)C)CC2)cc1 | 7.53
5 | COc1cc(/C=C(/Sc2nnc(-c3ccc(F)cc3)o2)C(=O)O)ccc1OC(F)F | 15.6
6 | Cc1ccc(Cc2cnc(N3C(=N)SC(c4ccccc4)C3=O)s2)cc1 (stereo not drawn) | 3.87
7 | COc1ccc(S(=O)(=O)N2CCOCC2)cc1NC(=O)CN(C)Cc1c(F)cccc1Cl | -21.2
8 | CCCCN(C)C(=O)c1ccc2c(c1)N(CC)C(=O)c1ccccc1S2(=O)=O | -7.66
9 | Cc1ccc(C2(C)NC(=O)N(CC(=O)Nc3ccc4c(c3)OCO4)C2=O)cc1 (stereo not drawn) | -3.02
10 | CCCCCCn1c(O)c(C=NCCN2CCCCC2)c(=O)[nH]c1=O | -51.9
11 | COc1ccc(C(=O)NC(=S)N(C)C2CCCCC2)cc1Br | 17.2
12 | O=C(NCCS(=O)(=O)N1CCN(Cc2ccccc2)CC1)c1ccc(F)cc1 | -43.8
13 | Cc1cnc([N+](=O)[O-])n1CCOC(=O)NC(=O)c1ccccc1Cl | 8.87
14 | O=C(COC(=O)c1ccccc1C(=O)c1ccccc1)NCCc1ccccc1 | -64.8
15 | O=C(O)COc1ccc(/C=N/NC(=O)c2cn(-c3ccccc3)nc2-c2ccccc2)cc1 | -9.37
16 | CC(NS(=O)(=O)c1ccc(CCC(=O)N2CCN(C)CC2)cc1)c1ccccc1 (stereo not drawn) | 3.59
17 | COc1ccc(-c2nn(-c3ccccc3)cc2C(=O)NC(=S)N2CCOCC2)cc1OC | 30.1
18 | CCOc1ccc(-c2n[nH]c(C(=O)NN)c2C)cc1 | -9.03
19 | COc1ccc(S(=O)(=O)N2CCCCC2)cc1NC(=O)c1cccnc1SC | -20.7
20 | COc1ccc(OC)c(-n2nnnc2SCC(=O)Nc2cc(C)ccc2OC)c1 | 3.04
21 | CCN(C(=O)CSc1nc(C)nc2sc(C)c(C)c12)C1CCS(=O)(=O)C1 (stereo not drawn) | -16.4
22 | NC(=O)C(c1ccc(Cl)cc1Cl)c1ncc(C(F)(F)F)cc1Cl (stereo not drawn) | -19.3

Row | SMILES | hERG current change (%, negative = inhibition) at 10uM [%]
23 | COc1cc(/C=N\NC(=O)CN2CCOCC2)ccc1OCC(=O)Nc1ccc(C)c(C)c1 | -32.4
24 | NS(=O)(=O)c1ccc(CNC(=O)C2CCCCC2)cc1 | 14.8
25 | CC1=C(C(=O)OC2CCCCCCC2)C(c2cc3c(cc2Br)OCO3)CC(=O)N1 (stereo not drawn) | 15.1
26 | COc1cccc(Nc2nc(=O)[nH]nc2C)c1 | -8.95
27 | CCCCNC(=O)Nc1ccccc1C(=O)NCc1ccco1 | -10.2
28 | COc1ccc(Nc2nc3ccccc3nc2NS(=O)(=O)c2ccc(NC(C)=O)cc2)cc1 | 15
29 | COc1ccc(-c2nc3c(c(SCC(=O)N4CCOCC4)n2)Cc2c(CO)cnc(C)c2O3)cc1 | 0.00838
30 | C=CCOc1cccc(/C=N/NC(=O)CC(=O)NC2CCCCC2)c1 | 19.2
31 | COc1cccc(N(CC(=O)NC2CCCCC2)C(=O)CCCC(=O)Nc2ccccn2)c1 | 13.2
32 | Cc1[nH]n(-c2ccccc2)c(=O)c1C=Nc1ccc(S(N)(=O)=O)cc1 | -10.1
33 | CCOC(=O)c1cc(C)n(CCc2cnc[nH]2)c1C | -10.2
34 | COC(=O)C1=C(N)OC2=C(C(=O)CC(C)(C)C2)C1c1cccs1 (stereo not drawn) | 6.56
35 | CCCCOc1ccc(C(=O)Nc2cccc(-n3cnnn3)c2)cc1OC | 7.78
36 | CCOc1ccc(-c2cnc3n2CCCCC3)cc1 | -63.3
37 | COCCN=c1scc(-c2ccc3c(c2)NC(=O)CO3)n1/N=C(\C)c1ccc(O)cc1 | -8.23
38 | C=CCn1c(SC2CCOC2=O)nc2sc(CC)cc2c1=O (stereo not drawn) | -65.4
39 | COc1ccc(CNC(=O)c2sc(=S)n(-c3ccc(OC)cc3)c2N)cc1 | -27.5
40 | O=P(c1ccccc1)(c1ccccc1)c1nc(-c2ccccc2)oc1NCc1ccccc1 | 3.15
41 | CC(=O)c1ccc(NC(=O)CSc2nnc(Cn3c(=O)sc4ccccc43)n2C)cc1 | -9.73
42 | COc1ccc(C(=O)c2sc(Nc3ccccc3)nc2C)cc1 | 0.747
43 | COc1ccc(NC(=S)NC(NC(=O)c2cccc(Cl)c2)C(Cl)(Cl)Cl)c([N+](=O)[O-])c1 (stereo not drawn) | 2.21
44 | COc1ccc(CNC(=O)CN2CCN(c3ccccc3O)CC2)cc1OC | 12.6

Row | SMILES | hERG current change (%, negative = inhibition) at 10uM [%]
45 | CCOC(=O)c1sc2nc(CSc3ccccc3)nc(N3CCC(C(N)=O)CC3)c2c1C | 17.5
46 | Cc1cc([N+](=O)[O-])cc(/C=N/n2c(C)nc3ccccc3c2=O)c1O | -20.2
47 | CCOC(=O)C1CCCN(C2CC(=O)N(c3ccccc3)C2=O)C1 (stereo not drawn) | -6.35
48 | COc1cccc(C(=O)Nc2ccc3c(c2)C(=O)NC3=O)c1 | -2.29
49 | COc1ccccc1C(=O)NC(=O)COC(=O)c1ccco1 | -6.51
50 | Cc1ccc(C(=O)NCc2ccccn2)o1 | 4.94
51 | CCCn1c(Nc2ccccc2C)nc2ccccc21 | -5.28
52 | C/C(=N\NC(=O)c1cc(Br)ccc1O)c1cccs1 | 16.6
53 | COc1ccc(/C=C/c2nc(S(=O)(=O)c3ccccc3)c(NCCCN(C)C)o2)cc1OC | -33.7
54 | COc1ccc(-c2csc(NC(=O)CSCC(=O)Nc3cc(C)on3)n2)cc1OC | 1.07
55 | COc1cc(OC)cc(-c2c(-c3cccs3)c3cc(-c4ccn[nH]4)ccc3n2C)c1 | 7.72
56 | CC1=Nc2cc(C(=O)N3CCCC3)ccc2Sc2ccc(C)cc21 | -16.1
57 | Clc1ccccc1OCCN1CCC(Cc2ccccc2)CC1.O=C(O)C(=O)O | -73.4
58 | COc1ccc(/C=N/NC(=O)CNS(=O)(=O)c2ccccc2)cc1 | -3.32
59 | CC(C)c1nc2sc3c(=O)n(N)cnc3c2c2c1COC(C)(C)C2 | 7.46
60 | CCCCNCCCCOc1ccccc1 | -0.921
61 | CCC(=O)Nc1ccc(Cl)c(NC(=S)NC(=O)COc2ccc(Cl)cc2)c1 | 2.45
62 | Fc1ccccc1-c1n[nH]c(=S)n1C1CC1 | 20.6
63 | CCN(CC)S(=O)(=O)c1ccc(/C=C/C(=O)Nc2ccc(F)c(F)c2F)cc1 | -10.4
64 | CC(C(=O)Nc1nc2ccccc2s1)n1cc([N+](=O)[O-])cn1 (stereo not drawn) | -69.5
65 | Cl.Fc1ccc(C(c2nnnn2Cc2ccco2)N2CCN(C3CCCCC3)CC2)cc1 (stereo not drawn) | -65.6
66 | CCOC(=O)C(C)Sc1nc2ccccc2c(=O)n1CC (stereo not drawn) | -22.4

Row | SMILES | hERG current change (%, negative = inhibition) at 10uM [%]
67 | N/C(=N\OC(=O)C1CCCCC1)c1ccc(Br)cc1 | 19.9
68 | Cc1nn(C)cc1/C=N/NC(=O)Cn1nccc1C | -1.28
69 | CCOC(=O)N1CCN(C(=O)Nc2ccccc2)CC1 | -0.0218
70 | CCn1c(N)c(C(=O)Nc2ccccc2C(=O)OC)sc1=S | 15.3
71 | COc1ccc(-c2nc(CS(=O)(=O)CC(=O)NCc3ccc4c(c3)OCO4)c(C)o2)cc1 | 18.9
72 | O=c1c2ccccc2nnn1Cc1nnc(-c2ccccc2Br)o1 | -25.3
73 | CCOC(CCNC(=O)c1cc(-c2cccs2)nc2ccccc12)OCC | 1.87
74 | N/C(=N\OC(=O)c1cccc(F)c1)c1ccccn1 | 23.8
75 | CC(C)CC(=O)Nc1nnc(S(=O)(=O)N(C)c2ccc(Cl)cc2)s1 | 20.9
76 | COc1ccc(/C=C/c2nc(-c3ccccc3O)n[nH]2)cc1OC | 12.1
77 | CCC(CO)Oc1cc(NC(=O)c2cccc(Cl)c2)c2ncn(C(C)C)c2c1 (stereo not drawn) | 19.7
78 | COC(=O)C1(C(=O)OC)NOC2C(=O)N(c3ccccc3)C(=O)C21 (stereo not drawn) | -3.39
79 | Cc1cccc(C)c1OCc1n[nH]c(=S)o1 | 16.5
80 | COc1ccc(NC(=O)C2CCCN(S(=O)(=O)c3cccc4cccnc34)C2)cc1OC (stereo not drawn) | -12.3
81 | CN=c1scc(C)n1/N=C/c1ccc2c(c1)OCO2 | 9.55
82 | Cc1cccc(C)c1OCc1cc(C(=O)N2CCCCCCC2)no1 | -0.442
83 | C=CCNC(=O)c1onc(CSc2ccc(F)cc2)c1C(=O)NCC=C | -15.8
84 | COc1ccc(N2CCN(C(=O)COC(=O)c3ccccc3OCc3ccc(F)cc3)CC2)cc1 | 3.18
85 | CC(C(=O)NC1C(=O)N2C(C(=O)O)=C(CSc3nnnn3C)CSC12)n1cc(Cl)cn1 (stereo not drawn) | 11.9
86 | COC(=O)CSc1nnc(-c2ccc(S(=O)(=O)NCc3ccccc3Cl)cc2)o1 | 7.04
87 | CC(=O)c1ccc(N2CCN(S(=O)(=O)c3c(C)[nH]c(C)c3C(=O)N3CCCC3)CC2)cc1 | -45.9
